The supplement of paper PMC7335073
In all, about 4,100 sequences were measured (“relative CpG methylation activity (normalised to average over all NNNCGNNN flanks)”: median about 0.94, highest 2% from about 1.9 on). This is one part of the list.

target: DNMT3B catalytic domain (mouse) (UniProt O88509); experiment: relative CpG methylation activity (normalised to average over all NNNCGNNN flanks) (relative (1 = mean)); higher = more methylation of the central CpG; details: system: in vitro, murine catalytic domain; CpG state: hemimethylated substrate pool; residues: 558-859
Sequence of UniProt O88509 (O88509 558-859): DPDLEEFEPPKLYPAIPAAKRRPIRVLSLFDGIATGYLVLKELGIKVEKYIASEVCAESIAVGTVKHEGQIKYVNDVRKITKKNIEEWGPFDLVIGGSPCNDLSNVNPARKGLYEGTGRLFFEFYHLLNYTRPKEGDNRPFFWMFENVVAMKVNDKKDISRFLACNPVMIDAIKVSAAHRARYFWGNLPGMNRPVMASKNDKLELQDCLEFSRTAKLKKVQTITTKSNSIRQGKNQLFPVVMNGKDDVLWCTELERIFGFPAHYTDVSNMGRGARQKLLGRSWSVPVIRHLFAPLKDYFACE
Method: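 Deep enzymology: a pool of dsDNA substrates with a central CpG flanked by 10 random nucleotides on each side was methylated by the murine DNMT3A or DNMT3B catalytic domain (0.8 mM SAM, 37 °C, 60 min). Methylation was then read out by hairpin ligation, bisulfite conversion and NGS. Values are the average methylation of each NNNCGNNN context (±3 flanks; the outer flanks are random and averaged over), normalised to the overall mean, so 1 = average activity.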

| Sequence | relative CpG methylation activity |
| --- | --- |
| GCACGACC | 1.26 |
| GTCCGTCT | 0.827 |
| CCACGCCT | 1.22 |
| AGCCGGAC | 0.434 |
| TGTCGAGC | 1.37 |
| CTGCGAGA | 1.51 |
| GTCCGTAC | 1.32 |
| AACCGATA | 1.2 |
| TCCCGCGC | 0.77 |
| AGACGGCC | 1.71 |
| GGTCGTGC | 0.413 |
| CTCCGAGG | 1.87 |
| CTCCGACT | 1.77 |
| GGGCGGAC | 0.543 |
| CCCCGGTT | 1.44 |
| CTCCGGGA | 1.77 |
| TAACGCCG | 1.42 |
| GGACGACT | 1.02 |
| TCTCGTGC | 0.758 |
| TATCGCTA | 0.662 |
| AAGCGAGA | 0.974 |
| ATGCGTCA | 0.863 |
| TATCGCTC | 0.837 |
| GTCCGAAC | 1.49 |
| ATACGCTC | 1.57 |

| Sequence | relative CpG methylation activity |
| --- | --- |
| CACCGTAG | 0.298 |
| TGGCGTCA | 0.414 |
| ATACGCCG | 1.69 |
| TATCGAGC | 1.57 |
| CCCCGTGA | 0.646 |
| TGACGGGC | 1.12 |
| CAGCGATC | 1.19 |
| GCGCGACT | 0.833 |
| CATCGTGG | 0.177 |
| GTCCGGAA | 1.13 |
| CAACGCGC | 1.42 |
| ATCCGTCG | 0.685 |
| AAACGCTA | 1.17 |
| AGGCGATA | 0.654 |
| ACCCGAGA | 1.59 |
| AGCCGCCA | 0.384 |
| TCACGGAA | 1.3 |
| TCACGTGC | 1.05 |
| GCTCGTAA | 0.408 |
| ACTCGGCA | 1.42 |
| CGCCGCCA | 0.454 |
| GATCGCGA | 0.392 |
| TGACGAAA | 1.04 |
| TGCCGTAC | 0.58 |
| TAACGCGA | 0.942 |

| Sequence | relative CpG methylation activity |
| --- | --- |
| AAGCGACG | 0.723 |
| CTGCGTAG | 0.918 |
| AACCGTCT | 0.425 |
| CTGCGTAT | 0.874 |
| TTTCGATT | 1.44 |
| CATCGATT | 1.68 |
| GTCCGCGC | 0.72 |
| AGACGTGA | 0.449 |
| TTTCGATA | 1.81 |
| CACCGGTC | 1.34 |
| TACCGGCA | 1.48 |
| ATACGAGT | 1.92 |
| TCTCGTTA | 0.269 |
| AGACGGTT | 1.41 |
| GTTCGTAG | 0.42 |
| CTTCGCGC | 1.21 |
| CCACGCCG | 1.28 |
| TTACGTCG | 1.58 |
| CAGCGATA | 1.06 |
| CCGCGTTT | 0.473 |
| GCACGGGG | 1.26 |
| GGTCGCCT | 0.856 |
| ATGCGTTG | 0.768 |
| GTGCGGAT | 0.671 |
| TTTCGAAA | 1.62 |

| Sequence | relative CpG methylation activity |
| --- | --- |
| AGCCGATG | 0.876 |
| TGGCGGGT | 0.625 |
| CCTCGTTC | 0.726 |
| TTACGCGT | 1.56 |
| ATACGATC | 2.12 |
| TTGCGAAA | 1.06 |
| TCGCGCGT | 0.498 |
| GGACGAAG | 1.05 |
| ATCCGTAC | 1.14 |
| CCTCGCGA | 0.653 |
| TGGCGCCT | 0.686 |
| AGGCGGTC | 0.656 |
| CCACGTAA | 0.901 |
| AGACGAGA | 1.79 |
| TGCCGGGG | 0.469 |
| ATACGTAT | 1.1 |
| GACCGGGC | 1.02 |
| AGGCGCGA | 0.281 |
| TTTCGTCC | 1.46 |
| CTACGACA | 1.68 |
| TCGCGTTG | 0.651 |
| CACCGACC | 1.09 |
| GTTCGGCG | 1.74 |
| GTTCGCCC | 0.862 |
| CAACGTTA | 0.868 |

| Sequence | relative CpG methylation activity |
| --- | --- |
| CGACGGAC | 0.934 |
| CTACGTCT | 1.54 |
| TAGCGCGC | 0.658 |
| TTCCGCCT | 1.05 |
| GATCGTTT | 0.274 |
| TCCCGACG | 1.37 |
| AGTCGCGT | 0.527 |
| TGCCGGCT | 0.975 |
| AACCGGTG | 0.805 |
| AGACGAGG | 1.67 |
| TAGCGCCA | 0.98 |
| AGACGCCG | 1.48 |
| GCACGATG | 1.35 |
| ACGCGGAT | 0.581 |
| CGTCGCGT | 0.404 |
| CGTCGGGA | 1.1 |
| CACCGCTA | 0.478 |
| TCACGTAA | 0.876 |
| TGCCGTTC | 0.419 |
| ACCCGGTC | 1.3 |
| TGACGAGA | 1.48 |
| GCACGGCA | 1.79 |
| AGCCGCTA | 0.259 |
| GCGCGAGT | 0.879 |
| CCCCGTAA | 0.383 |

| Sequence | relative CpG methylation activity |
| --- | --- |
| TTTCGGAT | 1.39 |
| ACCCGTTG | 0.371 |
| AGACGTTG | 0.617 |
| CCCCGTAG | 0.53 |
| GTCCGGGA | 1.64 |
| TTCCGTCG | 0.936 |
| TAGCGATC | 1.55 |
| CCGCGTAT | 0.578 |
| TATCGAGT | 1.51 |
| TCACGACA | 1.34 |
| TTACGAAA | 1.78 |
| TAACGATG | 1.44 |
| CGACGACC | 1.23 |
| GCCCGGCC | 1.59 |
| AGCCGGAA | 0.359 |
| TGTCGTCA | 0.543 |
| ATCCGAGT | 1.37 |
| TTTCGGTT | 1.29 |
| GGGCGTCG | 0.228 |
| GGACGTAT | 0.646 |
| CGACGTGA | 0.451 |
| CATCGCGA | 0.481 |
| CTGCGTTT | 0.744 |
| GATCGGGA | 0.916 |
| TTTCGCGA | 0.706 |

| Sequence | relative CpG methylation activity |
| --- | --- |
| GACCGAAA | 1.11 |
| CCGCGGGA | 0.89 |
| ACACGGCC | 1.94 |
| GTTCGCGG | 0.734 |
| AGGCGGTG | 0.468 |
| CATCGACG | 0.973 |
| GCTCGATA | 1.54 |
| CGACGTCC | 0.901 |
| GCTCGAGA | 1.63 |
| GTCCGGGT | 1.27 |
| TAACGAAT | 1.32 |
| CACCGTAA | 0.266 |
| AGTCGTTC | 0.708 |
| ATCCGTAG | 0.285 |
| CCTCGACA | 1.32 |
| CAACGCGT | 1.26 |
| GTGCGACG | 0.848 |
| ACTCGAAT | 0.855 |
| CCCCGTCA | 0.836 |
| GATCGTCT | 0.745 |
| CCGCGGAA | 0.562 |
| CACCGTGC | 0.514 |
| CTACGAAA | 1.69 |
| ACCCGTAC | 1.2 |
| AGGCGGGC | 0.758 |

| Sequence | relative CpG methylation activity |
| --- | --- |
| ACACGCAA | 0.869 |
| AGACGTAT | 0.58 |
| AGGCGCCG | 0.309 |
| TTGCGTGC | 0.603 |
| ATACGACT | 1.87 |
| CGGCGGAA | 0.609 |
| ATCCGTGC | 0.83 |
| CCACGTTA | 0.705 |
| CCACGAGA | 1.56 |
| TTCCGATT | 1.75 |
| CCGCGGGT | 0.929 |
| AAACGGCT | 1.82 |
| TCCCGGGC | 1.72 |
| AGTCGATC | 1.7 |
| TTCCGAGA | 1.6 |
| TCGCGAGG | 1.47 |
| CGCCGCAG | 0.103 |
| TCCCGACA | 1.42 |
| CAACGGAC | 1.54 |
| CTTCGTGC | 0.878 |
| CACCGTGG | 0.295 |
| ATGCGAGA | 1.16 |
| GGGCGCCT | 0.495 |
| CGGCGGGC | 0.776 |
| GCGCGGTC | 0.932 |

| Sequence | relative CpG methylation activity |
| --- | --- |
| GCACGCAA | 0.713 |
| CTGCGTCC | 1.35 |
| CTACGCTT | 1.78 |
| CCTCGTGG | 0.141 |
| ATACGCAA | 1.05 |
| GGCCGCGG | 0.104 |
| GAACGAGC | 1.85 |
| GCACGCTC | 1.46 |
| TGTCGGAG | 0.568 |
| GCGCGTAA | 0.589 |
| GTCCGGAG | 0.909 |
| GGGCGTAG | 0.303 |
| TCACGGAG | 0.76 |
| TCGCGCCA | 0.761 |
| CCACGTAT | 0.996 |
| TTACGACA | 1.81 |
| CGTCGGCG | 1.57 |
| TGGCGTTT | 0.26 |
| GTGCGGCG | 1.28 |
